Measured values from PubChem BioAssay AID488969 (Vanderbilt High Throughput Screening Facility, 2010).
In all, about 110,000 compounds were measured (“z-score”: median about -0.1, highest 2% from about 2 on). The list shows a part of the results. The source made the active and inactive calls.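 The calls were made as follows: active = z-score in the third read window above 3 or below -3; inactive = the rest.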

What follows are molecules tested against Metabotropic glutamate receptor 8 (Rattus norvegicus) (UniProt P70579) (assay: rat mGluR8 modulators via GIRK flux, primary screen, cell-based, thallium flux, HTS (AID 488969)). Conditions: HEK293 rat mGluR8, GIRK (G protein-gated inwardly rectifying potassium channel) thallium flux, FluoZin2; at 10 µM; stronger effect = higher value; submaximal glutamate (EC20) added with thallium.
UniProt P70579, sequence (P70579 whole entry, looked up): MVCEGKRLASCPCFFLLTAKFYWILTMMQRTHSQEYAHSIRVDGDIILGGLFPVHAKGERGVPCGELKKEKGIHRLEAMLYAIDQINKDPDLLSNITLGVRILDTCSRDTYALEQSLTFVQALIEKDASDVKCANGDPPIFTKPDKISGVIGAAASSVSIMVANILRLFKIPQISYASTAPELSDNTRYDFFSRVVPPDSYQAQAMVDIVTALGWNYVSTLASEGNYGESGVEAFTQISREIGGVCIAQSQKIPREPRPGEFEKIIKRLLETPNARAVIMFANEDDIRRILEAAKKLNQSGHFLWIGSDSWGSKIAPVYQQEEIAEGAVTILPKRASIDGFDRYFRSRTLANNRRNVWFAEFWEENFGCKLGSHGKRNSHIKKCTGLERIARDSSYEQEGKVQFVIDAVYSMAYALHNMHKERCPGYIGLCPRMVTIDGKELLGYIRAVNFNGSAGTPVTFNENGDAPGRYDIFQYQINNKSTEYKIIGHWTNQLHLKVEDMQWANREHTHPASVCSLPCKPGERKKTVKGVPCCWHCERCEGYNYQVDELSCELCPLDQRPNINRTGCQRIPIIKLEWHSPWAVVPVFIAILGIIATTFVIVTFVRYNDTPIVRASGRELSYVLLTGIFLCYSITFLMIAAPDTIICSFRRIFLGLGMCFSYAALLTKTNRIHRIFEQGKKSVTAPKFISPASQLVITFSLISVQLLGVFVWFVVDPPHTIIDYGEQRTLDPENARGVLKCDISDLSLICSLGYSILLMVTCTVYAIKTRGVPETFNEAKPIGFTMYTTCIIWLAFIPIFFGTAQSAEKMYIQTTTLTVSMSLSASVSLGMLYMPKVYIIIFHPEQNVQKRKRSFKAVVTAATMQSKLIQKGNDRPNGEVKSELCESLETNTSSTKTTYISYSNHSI

Row | Structure (SMILES) | z-score
1 | O=C1c2cccnc2C(Nc2ccc(S(=O)(=O)N3CCCCC3)cc2)N1Cc1ccccc1 (configuration not stated) | 0.26
2 | COc1ccc(C(=O)/C=C/C(=O)N(Cc2ccccc2OC)C(C(=O)NC2CCCCC2)c2ccncc2)c(O)c1 (configuration not stated) | -0.0916
3 | C/C(=N/NC(=O)CN1CCN(Cc2ccccc2Cl)CC1)c1ccncc1 | -0.146
4 | Cc1cc(C)n2nc(SCC(=O)N(C)Cc3ccccc3)nc2n1 | 0.342
5 | N#CC1=C(N)Oc2cc3ccccc3cc2C1c1cccnc1 (configuration not stated) | -0.804
6 | O=c1/c(=C/c2ccc(O)cc2)sc2n1CCCN=2 | -0.159
7 | Cc1ccc(CCNC(=O)CN(C)S(=O)(=O)c2ccc3c(c2)c(=O)n(C)c(=O)n3C)cc1 | -0.023
8 | CCc1nnc(NC(=O)c2nc3nc(C)cc(C)n3n2)s1 | 0.337
9 | O=C(CSc1nnc(NC(=O)c2ccccc2Cl)s1)Nc1ccc2c(c1)oc1ccccc12 | -0.889
10 | CCC(C)NC(=O)CCn1c(-c2ccccc2)cc(C(C)=O)c1C (configuration not stated) | -0.179
11 | OCc1nc(CO)n(Cc2ccccc2)n1 | -0.375
12 | O=C(Nc1ccc(S(=O)(=O)Nc2nccs2)cc1)/C(=C/c1ccccc1Cl)NC(=O)c1ccccc1 | -0.137
13 | COC(=O)C1C(=O)CC(C)(O)C(C(=O)OC)C1c1ccc2c(c1)OCO2 (configuration not stated) | 0.446
14 | O=C(O)Cc1ccc2[nH]c3ccc(CC(=O)O)cc3c2c1 | 0.103
15 | CCOC(=O)C1=C(C)N(C)C(=O)NC1c1c(C)nn(-c2ccc(C)cc2)c1Cl (configuration not stated) | -0.228
16 | COCCCN1Cc2cccc(C(=O)O)c2C1=O | 0.334
17 | Cc1ccc(NC(=O)N(Cc2cccnc2)Cc2ccco2)cc1C | 0.0528
18 | O=C(CN(Cc1ccco1)C(=O)CCC(=O)Nc1nccs1)NCc1ccccc1 | -0.046
19 | COc1ccc(NC(=O)CSc2nnnn2-c2ccc(OC)cc2)cc1 | -0.291
20 | CN1CCN(C(=O)CC23CC4CC(CC(C4)C2)C3)CC1 | 0.00881
21 | CCCn1c(CC)nc([N+](=O)[O-])c1S(=O)(=O)c1ccccc1 | -0.218
22 | COc1ccc(N2CCN(CCCNS(=O)(=O)c3c(C)noc3/C=C/N(C)C)CC2)cc1 | 0.114

Row | Structure (SMILES) | z-score
23 | COc1cc(C)ccc1OCCOCCOc1ccc(C)cc1[N+](=O)[O-] | -0.332
24 | COc1ccc(NC(=O)N(Cc2ccc3c(c2)OCO3)C2CC(=O)N(c3ccc(OC)cc3)C2=O)cc1 (configuration not stated) | 0.0823
25 | COc1cc(CNCc2ccco2)ccc1OCc1ccccc1 | 0.00912
26 | Cc1ccc2cc(C)c3nnc(SCC(=O)N4CCN(C(=O)c5ccco5)CC4)n3c2c1 | -1.02
27 | O=C(Nc1ccccc1)c1cccc(-c2nnc(-c3ccccc3)o2)c1 | 0.0469
28 | CCCCCCCCNC(=O)/C(C#N)=C/c1ccccc1[N+](=O)[O-] | -0.0403
29 | CC(C)CN1C(=O)NC(NC(=O)c2cccnc2)(C(F)(F)F)C1=O (configuration not stated) | 0.807
30 | CC(=O)N1CCN2C(=O)C1CCCC(=O)c1cc(C3CCCCC3)ccc12 (configuration not stated) | -0.657
31 | Cc1occc1C(=O)N/N=C/c1c[nH]c2ccccc12 | -0.213
32 | COc1ccccc1-c1cc(C(=O)N2CCc3ccccc3C2)c2ccccc2n1 | -0.524
33 | Cn1c(=O)c2[nH]c(CNCc3ccccc3Cl)nc2n(C)c1=O | -0.537
34 | Nc1c(C(=O)O)nnn1Cc1ccccc1 | -0.029
35 | CC1CCCN(C(=O)Nc2cccc(NC(=O)N3CCCC(C)C3C)c2)C1C (configuration not stated) | -1.26
36 | Cc1cccc(-n2cc[nH]c2=S)c1 | 0.0616
37 | O=C(NCCCN1CCOCC1)C1CCC(=O)N1C1CCCCC1 (configuration not stated) | -0.298
38 | COc1ccc(/C=N/NC(=O)CCn2c3ccccc3c3ccccc32)cc1O | -0.234
39 | Clc1ccc(/C=N/c2c(-c3ccco3)nc3ccccn23)cc1 | 0.302
40 | O=C(CNC(=O)c1cccc(F)c1)N/N=C/c1cc(Br)ccc1OCc1ccccc1 | -0.261
41 | CCn1c(=O)cc(OCC(=O)Nc2cc(C)ccn2)c2ccccc21 | -1.1
42 | Cc1cccc(C)c1OCCCCc1c(C)n[nH]c1C | 1.77
43 | O=C(CCc1ccc(S(=O)(=O)N2CCOCC2)cc1)N/N=C/c1cccc(O)c1 | -0.381
44 | Cc1cc(=O)n2[nH]c(-c3ccccc3)cc2n1 | -0.312

Row | Structure (SMILES) | z-score
45 | COc1ccc(OC)c(NC(=O)C2C3CCC(O3)C2C(=O)O)c1 (configuration not stated) | -0.525
46 | COc1ccc(-c2[nH]c(-c3ccc(SC)cc3)nc2SCC(=O)Nc2nccs2)cc1 | 0.0167
47 | O=C1N=C(N2CCN(c3cccc4ccccc34)CC2)S/C1=C/c1cccs1 | -0.0125
48 | Cc1ccc(C)c(S(=O)(=O)Nc2cc(SCC(=O)O)c(O)c3ccccc23)c1 | -0.346
49 | CCCOC(=O)c1ccc(NC(=O)C(=O)NCC2CCCO2)cc1 (configuration not stated) | -0.069
50 | COC(=O)/C(=C(/F)SCC(C)=O)C(F)(F)F | -0.12
51 | Cc1cc2ncn(C(=O)N3CCC(C)CC3)c2cc1C | -0.138
52 | COc1ccc(Cc2nnc(N)s2)cc1 | -0.0129
53 | Clc1cc(Br)ccc1OCCCn1ccnc1 | 0.0482
54 | Cn1c(=O)c2cc(S(=O)(=O)NC(C(=O)NCc3ccccn3)c3ccccc3)ccc2n(C)c1=O (configuration not stated) | 0.48
55 | CC1CC(C)CN(CC(C)(C)NS(=O)(=O)c2ccc(Cl)cc2)C1 (configuration not stated) | 0.842
56 | CCOC(=O)CC(NC(=O)c1cc2ccccc2oc1=O)c1cccc([N+](=O)[O-])c1 (configuration not stated) | -0.356
57 | Cc1c(C(=O)NCC2COc3ccccc3O2)oc2ccc(S(=O)(=O)N3CCOCC3)cc12 (configuration not stated) | -0.366
58 | O=C(NCCc1ccccc1)Nc1ccc(Cl)cc1 | 0.558
59 | Cc1nnc2c3ccccc3c(-c3ccc(O)cc3)nn12 | -0.28
60 | CCC(Sc1ncnc2sc(C)c(C)c12)C(=O)OC (configuration not stated) | -0.469
61 | COc1ccc(C(C(=O)NC2CCCC2)N(C(=O)c2ccoc2C)c2ccc(C)cc2)cc1 (configuration not stated) | -0.798
62 | CSc1cccc(NC(=O)CSc2ncccc2C(=O)Oc2cccc([N+](=O)[O-])c2)c1 | -0.0293
63 | Cc1ccc(Oc2coc3cc(OC(=O)c4cccs4)ccc3c2=O)cc1 | 0.0736
64 | O=C(c1ccc(Br)o1)N1CCN(c2ccc3nnc(-c4ccc(F)cc4)n3n2)CC1 | active: -4.05
65 | Cc1[nH]c2ccccc2c1C(=O)CN1CCCCC1C (configuration not stated) | 0.0814
66 | CCC(C)NC(=O)c1ccc(NC(=O)C2CCCO2)cc1 (configuration not stated) | -0.155

Row | Structure (SMILES) | z-score
67 | COc1ccc(N(CC(=O)Nc2ccc(C)cn2)S(=O)(=O)c2c(C)noc2C)cc1 | -0.0762
68 | O=C(CNC(=O)c1ccco1)NCC(=O)OCc1ccc(C(=O)Oc2ccc(Cl)cc2)cc1 | 0.176
69 | CCN(CC)CCCNc1nc(-c2ccccc2)nc2ccccc12 | -0.17
70 | CCOc1cc(-n2cnnn2)c(OCC)cc1NC(=O)c1cc2ccc(N(CC)CC)cc2oc1=O | -1.74
71 | O=C1CC(=O)N(CCNc2ncc(C(F)(F)F)cc2Cl)C(=O)N1 | -0.0792
72 | CNC(=O)N(C1=NCCCCC1)c1ccc(Br)cc1 | -0.628
73 | CCOCCCNC(=S)NCCCNc1nc2cc3c(cc2cc1C#N)OCO3 | -0.17
74 | Cc1cccc(OCC(=O)Nc2ccc3c(C)cc(=O)oc3c2)c1 | -0.14
75 | O=C1c2ccccc2C(=O)N1c1ccc(S(=O)(=O)N2CCN(c3ccccc3)CC2)cc1 | 1.43
76 | O=C(NCCc1ccccc1)c1ccc(Cl)c([N+](=O)[O-])c1 | -0.188
77 | Cc1ccc(CNC(=O)C2CCC(CNc3c(N4CCOCC4)c(=O)c3=O)CC2)cc1 (configuration not stated) | 0.00594
78 | CCN1CCN(C(=O)C2c3cc(OC)c(OC)cc3C(=O)N3CCc4ccccc4C23)CC1 (configuration not stated) | -0.253
79 | CC(=O)N1C(=S)NC(=O)/C1=C1/C(=O)N(CC(=O)Nc2cccc(C)c2)c2ccccc21 | -0.229
80 | CCn1c(-c2ccc(C)cc2)n[nH]c1=S | -0.192
81 | O=C(CN1C(=O)NC2(CCCCCCC2)C1=O)N1CCN(C(=O)c2ccco2)CC1 | 0.034
82 | O=c1oc2ccccc2cc1-c1nc(-c2ccccc2)no1 | -0.0794
83 | N#CC(c1ccccc1)c1ccc(C(=O)c2ccc(F)cc2)cc1 (configuration not stated) | 0.0236
84 | O=C(O)CCc1ccc(-c2cccs2)n1NC(=O)c1ccc(Cl)cc1Cl | 1.18
85 | CCOC(=O)C(Cc1cc(C(C)=O)ccc1OC(C)C)C(=O)OCC | -0.835
86 | CCCCN(CCCC)C1=Nc2ccccc2N/C1=C(/C#N)C(=O)OCC | -0.582
87 | COc1ccc(/C(N)=N/OC(=O)C2CCC(=O)N2S(=O)(=O)c2ccc(C)cc2)cc1 (configuration not stated) | 0.116
88 | CCC(=O)Nc1ccc(Br)c(Cl)c1 | 0.106

Row | Structure (SMILES) | z-score
89 | Cc1nc(N)sc1-c1csc(NCc2ccccc2)n1 | -0.132
90 | Cn1c2c(c(O)c(-c3ccccc3)c1=O)C(=O)CC(C)(C)C2 | -0.119
91 | N#CCCN1CCN(S(=O)(=O)c2ccc(S(=O)(=O)NC3CCCCC3)cc2)CC1 | 0.85
92 | CCOc1ccc(CC(=NCCc2ccccc2)C2=C(O)CC(C)(C)CC2=O)cc1OCC | -0.655
93 | O=C(C1CCC(Cn2c(=S)[nH]c3ccccc3c2=O)CC1)N1CCN(c2ccccc2)CC1 (configuration not stated) | 1.21
94 | Clc1ccccc1CSc1nnc(-c2ccccn2)n1Cc1ccco1 | 0.314
95 | Nc1ccc(N2CCN(C(=O)c3cccs3)CC2)cc1 | 0.019
96 | Cc1cc(C(F)(F)F)n(-c2nc(C(=O)Nc3ccccc3Oc3ccccc3)cs2)n1 | -0.474
97 | Cc1cccc2c1N1C(=O)c3c(C(=O)O)cccc3C1CC2C (configuration not stated) | -0.265
98 | CCCn1c(CCC(=O)O)ccc1-c1cccs1 | -0.107
99 | O=C(N/N=C/c1ccc(OC(F)F)cc1OC(F)F)c1ccc(Br)cc1 | -0.281
100 | COc1ccccc1-c1cc(C(F)(F)F)nc(N2CCCCC2)n1 | 0.684
101 | CCOC(=O)c1c(CN2CCOCC2)n(-c2ccccc2)c2ccc(O)cc12 | -0.21
102 | Cn1c(=O)c2cn(Cc3ccc(Cl)cc3)cc2n(C)c1=O | 0.574
103 | O=C(NNC(=O)c1ccc2c(c1)OCO2)NC1CCCCC1 | 0.0026
104 | O=C1CC(N2CCC(O)(c3ccc(Cl)cc3)CC2)C(=O)N1Cc1ccc(N2CCCC2=O)cc1 (configuration not stated) | -0.0119
105 | COc1cc(C(C)=O)ccc1OCC(O)CN1CCN(S(=O)(=O)c2ccccc2)CC1 (configuration not stated) | 0.328
106 | CC1=NC(C(F)(F)F)(C(F)(F)F)C2=C(CC(C)(C)CC2=O)N1Cc1ccco1 | -0.165
107 | C/C(CC(O)c1ccc2ccccc2n1)=N/O (configuration not stated) | active: 5.27
